Screen size: about 310,000 compounds; about 14,000 (4.5%) showed an effect of 50% or more. The effect is printed as a negative number. This is one part of the list.
Target: human ether-à-go-go-related gene (hERG) potassium channel (human, UniProt Q12809)
Experiment: primary screen, population patch clamp on CHO cells stably expressing hERG
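Further: peak tail current of the secondary pulse compared with the same well before compound.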

Sequence of human ether-à-go-go-related gene (hERG) potassium channel (Q12809 whole entry, looked up): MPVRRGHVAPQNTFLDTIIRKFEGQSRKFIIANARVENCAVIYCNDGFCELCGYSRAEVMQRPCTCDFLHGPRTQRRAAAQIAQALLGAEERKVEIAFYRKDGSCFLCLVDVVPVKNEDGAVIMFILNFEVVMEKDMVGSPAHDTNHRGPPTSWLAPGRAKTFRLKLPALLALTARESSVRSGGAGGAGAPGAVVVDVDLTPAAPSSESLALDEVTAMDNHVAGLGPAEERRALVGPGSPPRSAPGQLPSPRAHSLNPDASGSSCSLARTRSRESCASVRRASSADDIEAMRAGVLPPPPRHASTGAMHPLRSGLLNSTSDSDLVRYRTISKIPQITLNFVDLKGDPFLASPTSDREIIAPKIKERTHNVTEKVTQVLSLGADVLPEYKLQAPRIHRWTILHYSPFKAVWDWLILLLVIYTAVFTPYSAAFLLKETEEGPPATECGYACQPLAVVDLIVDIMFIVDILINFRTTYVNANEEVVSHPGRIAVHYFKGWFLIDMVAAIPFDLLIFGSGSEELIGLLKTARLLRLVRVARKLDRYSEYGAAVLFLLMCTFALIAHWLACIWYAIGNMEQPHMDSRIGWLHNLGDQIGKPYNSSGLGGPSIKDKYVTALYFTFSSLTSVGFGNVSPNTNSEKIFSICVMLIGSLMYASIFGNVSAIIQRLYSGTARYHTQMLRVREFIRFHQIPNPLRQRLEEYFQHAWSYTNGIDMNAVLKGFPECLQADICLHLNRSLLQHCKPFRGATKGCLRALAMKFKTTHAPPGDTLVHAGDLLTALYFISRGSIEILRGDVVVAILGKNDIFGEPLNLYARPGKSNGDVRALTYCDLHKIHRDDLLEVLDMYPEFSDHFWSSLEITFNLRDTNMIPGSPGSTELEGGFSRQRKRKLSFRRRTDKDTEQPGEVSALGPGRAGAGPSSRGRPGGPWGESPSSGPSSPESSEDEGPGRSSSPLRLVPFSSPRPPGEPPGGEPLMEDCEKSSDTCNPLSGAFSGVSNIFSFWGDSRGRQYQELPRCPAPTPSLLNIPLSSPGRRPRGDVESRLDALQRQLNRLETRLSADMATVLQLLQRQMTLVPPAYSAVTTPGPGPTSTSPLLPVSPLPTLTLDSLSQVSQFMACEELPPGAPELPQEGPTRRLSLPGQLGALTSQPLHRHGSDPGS

| Compound | hERG current change (%, negative = inhibition) at 10uM [%] |
| --- | --- |
| O=C(NCC1CCCO1)c1ccccc1 (stereo not shown) | -1.68 |
| CC(=O)Nc1ccc(Br)c2ccccc12 | -6.53 |
| CCC1CCCCN1C(=O)CSc1nnc(-c2ccc3c(c2)OCCO3)o1 (stereo not shown) | -18.3 |
| CN(CCOc1ccccc1)CC(=O)Nc1cc([N+](=O)[O-])ccc1Cl | 6.74 |
| C=CCNCCCCOc1ccc(Br)cc1C.O=C(O)C(=O)O | -41 |
| CCOC(=O)N1CCN(C(=O)CCc2c(C)nc3c(c(C)nn3-c3ccc(C)c(C)c3)c2C)CC1 | -22 |
| CCOC(=O)c1ccc(-c2cccc(C(F)(F)F)c2)nc1C | 4.81 |
| Cc1ccc(N2C(=O)N(CC(=O)Nc3cccc([N+](=O)[O-])c3C)C(=O)C2C)cc1 (stereo not shown) | -20.1 |
| C/C(O)=C\c1nc2ccccc2oc1=O | 11.6 |
| O=C(N/N=C/c1ccc([N+](=O)[O-])o1)c1cc(-c2ccncc2)nc2ccccc12 | -62.9 |
| Cc1ccc(S(=O)(=O)N/N=C\c2ccc([N+](=O)[O-])o2)cc1C | 6.17 |
| COc1cccc(CSc2nnc(-c3ccco3)n2C)c1 | -3.51 |
| COc1ccc(C(CNC(=O)c2oc3ccc(Cl)cc3c2C)N2CCCCC2)cc1 (stereo not shown) | -25.9 |
| CCCNC(=O)C(Cc1ccccc1)NC(=O)c1cccc([N+](=O)[O-])c1 (stereo not shown) | 5.7 |
| CC1CC(C)CN(S(=O)(=O)c2ccc3c(c2)CC(C)N3C(=O)C2CC2)C1 (stereo not shown) | 2.09 |
| O=C(CSc1nnc(SCc2ccccc2Cl)s1)N/N=C/c1c[nH]c2ccccc12 | 5.11 |
| COc1cccc(NC(=O)CN(C)C(=O)c2ccc(N3CCCCC3)c([N+](=O)[O-])c2)c1 | -12.9 |
| Cc1ccc(C)c(NCC(=O)c2ccc(Cl)cc2)c1 | 21.7 |
| Cc1ccc(S(=O)(=O)NCc2ccncc2)c(C)c1C | 17.5 |
| O=C(COC(=O)c1ncc(Cl)c(Cl)c1Cl)NC1CCS(=O)(=O)C1 (stereo not shown) | -25.5 |
| CC(C)NC(=O)C(c1ccc(F)cc1)N(C(=O)CCC(=O)Nc1ccccn1)C1CCCCC1 (stereo not shown) | -4.26 |
| CCOC(=O)CC(=O)CSc1ncc(C(=O)OCC)c(N)n1 | -0.281 |

| Compound | hERG current change (%, negative = inhibition) at 10uM [%] |
| --- | --- |
| N#Cc1c(SCC(N)=O)nsc1SCc1ccc(Cl)cc1 | -0.34 |
| Cc1ccc(CCNC(=O)C2CC(c3cccc(F)c3)=NO2)cc1 (stereo not shown) | 0.919 |
| COC(=O)c1c(NC(=O)CN2CCC(C(N)=O)CC2)c2c(C)cccc2n1C | 4.22 |
| CCc1ccc(C2CC(c3ccco3)=NN2S(C)(=O)=O)cc1 (stereo not shown) | 9.31 |
| O=C(Cc1ccc(S(=O)(=O)N2CCOCC2)s1)NCC(=O)Nc1ccccc1Br | -2.67 |
| O=C(CN1C(=O)NC(Cc2ccccc2)C1=O)Nc1ccccc1 (stereo not shown) | 6.7 |
| COc1ccc(N(CC(=O)NCCOc2ccccc2)S(=O)(=O)c2ccc(C)cc2)cc1 | -54.8 |
| Cc1ccc(N2CC(=O)N(NC(=O)c3sc4nc(C)cc(C)c4c3N)CC2=O)cc1 | 14.2 |
| Cc1cc(C)nc(SCC(=O)Nc2ncc(Cc3ccc(Cl)c(Cl)c3)s2)n1 | -4.72 |
| CN(C)C(CNC(=O)c1ccc2c(=O)n(-c3ccccc3F)c(=S)[nH]c2c1)Cc1ccccc1 (stereo not shown) | 4.97 |
| O=C1/C(=C/c2ccccc2Cl)N2CCC1CC2 | -14.1 |
| Cc1ccnc(NS(=O)(=O)c2ccc(NC(=O)C34CC5CC(C)(CC(C)(C5)C3)C4)cc2)n1 | -9.93 |
| COc1ccc(NC(=O)c2cc(C(C)C)on2)cc1OC | 9.04 |
| COC(=O)c1sc2ccccc2c1-n1cccc1C(=O)C(=O)Nc1ccc(Cl)cc1 | 0.698 |
| C/C(CC(=O)NC12CC3CC(CC(C3)C1)C2)=N\NC(=O)Cc1cccs1 | 0.292 |
| Cc1cccc(C)c1NC(=S)N(C)CCc1ccccn1 | 3.68 |
| COc1cc2c(c(OC)c1OC)CCc1cnoc1-2 | -1.27 |
| Cc1cc(C)[n+](CCCC[n+]2c(C)cc(C)cc2C)c(C)c1.[O-][Cl+3]([O-])([O-])[O-] | 2.24 |
| O=C(N/C(=C\c1cccc([N+](=O)[O-])c1)C(=O)N(CCO)CCO)c1ccco1 | 13.4 |
| Cc1ccc(CCNC(=O)C2CCCN(C(=O)c3cc4sccc4n3C)C2)cc1 (stereo not shown) | -15.4 |
| CC(C)OC(=O)C(C#N)c1nc2ccccc2nc1N1CCN(Cc2ccccc2)CC1 (stereo not shown) | -18.6 |
| CC1CCCC(C)N1C(=O)c1cc(-c2ccco2)on1 (stereo not shown) | -3.06 |

| Compound | hERG current change (%, negative = inhibition) at 10uM [%] |
| --- | --- |
| Cn1c(N)c(C(=O)COC(=O)CNC(=O)c2ccccc2Cl)c(=O)n(C)c1=O | -14.7 |
| Cc1cc2c(cc1S(=O)(=O)NCc1ccccc1)n(C)c(=O)c(=O)n2C | -10.9 |
| Cl.O=C(NCCN1CCOCC1)c1cn(-c2ccccc2)nc1-c1cccs1 | -25.6 |
| Cc1cccc(C)c1NC(=O)CNC(=O)c1ccc2ccccc2n1 | -2.51 |
| O=c1c2nnn(-c3ccc(Cl)cc3)c2ncn1Cc1ccccn1 | -6.29 |
| Cc1cc(C)c(NC(=O)CNC(=O)c2cc([N+](=O)[O-])ccc2N2CCOCC2)c(C)c1 | -9.25 |
| COc1ccc(/C=C/c2onc(C)c2S(=O)(=O)N2CCC(C(=O)N3CCC(C)CC3)CC2)cc1 | 15.8 |
| Cc1occc1C(=O)N1CCN(S(=O)(=O)c2ccc(F)cc2)CC1 | -11.3 |
| O=C1CCc2cc(S(=O)(=O)NCc3ccccc3)cc3c2N1CC3 | -8.97 |
| Cc1ccc(NC(=O)NNC(=O)c2cccs2)cc1 | -24.6 |
| CN(CC(=O)Nc1ccc(N2CCOCC2)cc1)CC(=O)Nc1ccc(N2CCOCC2)cc1 | 6.39 |
| Cc1cc(NS(=O)(=O)c2ccc(NC(=S)NCc3ccccc3)cc2)no1 | 20.2 |
| O=C(Nc1ccc(N2CCOCC2)cc1)C1(S(=O)(=O)c2ccccc2)CC1 | 2.77 |
| N#Cc1cn(CCOc2ccccc2F)c2ccccc12 | -6.19 |
| COc1ccc(CCC(=O)NC(C)C)cc1 | -6.2 |
| COc1ccc(S(=O)(=O)Nc2c(O)c3ccccc3oc2=O)cc1 | 18 |
| CCCn1c(=O)c2c(ncn2C)n(CCC)c1=O | 3.68 |
| CC(C)c1ccc(C(=O)N(c2ccccn2)C(C)c2ccco2)cc1 (stereo not shown) | -21.8 |
| O=C(C(Cl)Cl)N1CCN(Cc2ccc3c(c2)OCO3)CC1 | 12.3 |
| O=C(Nc1ccc(Cl)cc1)OCc1cc(-c2ccccc2)on1 | 15.7 |
| Cc1ccccc1OCC(=O)NNC(=O)C1CCCCC1C(=O)O (stereo not shown) | 8.94 |
| Cc1ccc(CC(=O)N2CCN(Cc3ccccc3)CC2)cc1 | 4.07 |

| Compound | hERG current change (%, negative = inhibition) at 10uM [%] |
| --- | --- |
| Cc1nnc(SCC(=O)c2ccc(Cl)cc2)s1 | -9.82 |
| CC(C)OC(=O)CSc1nc2c(cc1C#N)CCCCC2 | 19.6 |
| O=[N+]([O-])c1ccc(/C=[N+](\[O-])CCO)o1 | 19.4 |
| Cc1ccc(C(=O)NC(=S)Nc2cc(C(F)(F)F)ccc2Cl)cc1 | 20.3 |
| CCCCNC(=O)C1CC(c2ccc(C(F)(F)F)cc2)=NO1 (stereo not shown) | 3.73 |
| CC1CCCCC1NC(=O)c1cn(C)c2ccc(S(=O)(=O)N3CCCC3)cc2c1=O (stereo not shown) | -0.37 |
| C/C(=N/NC(=O)CN1CCN(Cc2ccccc2Cl)CC1)c1ccncc1 | -65.4 |
| Cl.N[C@@H](Cc1c[nH]c2ccccc12)c1nnc(SCc2c(F)cccc2Cl)o1 | 1.99 |
| COc1ccc(NC(=O)C2CCCN(CCCc3ccccc3)C2)cc1OCC(C)C.O=C(O)/C=C/C(=O)O (stereo not shown) | -52.1 |
| CC1=NN(C(C#N)c2ccccc2)C(C)(C)C1 (stereo not shown) | -18.8 |
| Cc1ccc(S(=O)(=O)N2CCOCC2)cc1NC(=O)COc1cccc(Oc2ccccc2)c1 | -10.5 |
| COC(=O)Cn1nc(-c2ccccc2)n(-c2ccccc2)c1=S | -0.945 |
| Cc1ccc(N2CCN(C(=O)N3CCCC3)CC2)cc1C | -7.29 |
| O=C(Nc1cccc2ccccc12)N1CCCN(c2c(Cl)cncc2Cl)CC1 | 5.78 |
| CC1=Nn2c(nnc2C2CCCCC2)SC1 | -2.36 |
| COc1ccc(/C=C/C=N/NC(=O)COc2ccc(OC)cc2)cc1 | 1.85 |
| Cc1nc(C)c(C(=O)NNC(=O)c2ccc(Br)cc2)s1 | 13.7 |
| Cc1cccc(/C(N)=N/OC(=O)c2cccs2)c1 | 8.03 |
| Cc1nc(-c2cccc(S(=O)(=O)N3CCCCC3)c2)cs1 | -21 |
| CCn1c(SCC(=O)N(C(C)C)C(C)C)nnc1-c1cc2ccccc2cc1O | -8.52 |
| CCOC(=O)c1cc(-c2csc(N/N=C/c3ccccc3Cl)n2)on1 | 2.19 |
| COc1ccc(C(CNC(=O)c2cccc(S(=O)(=O)Nc3cccc(C)c3)c2)N2CCOCC2)cc1 (stereo not shown) | -13.6 |
